Source: PubChem BioAssay AID588342 (National Center for Advancing Translational Sciences (NCATS), 2011)
Out of some 360,000 compounds screened, about 25,000 (6.9%) were called active. The shares of active, inactive and inconclusive entries below differ from those in the screen. Calls come from the whole dose curve; as a rule, active = well fitted inhibition curve with a large enough effect; inconclusive = small, poorly fitted or top-dose-only effect; inactive = flat fitted curve, though single readings scatter. Potencies beside an inconclusive call are fits to weak or partial responses and may not hold up.

Molecular target: Luciferin 4-monooxygenase (Photinus pyralis) (UniProt P08659)
Experiment: qHTS profiling assay for firefly luciferase inhibitor/activator using purifed enzyme and Km concentrations of substrates (counterscreen for miR-21 project); note: nearly all actives have a fitted effect of over 55% in size;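 for activity change, negative = inhibition: plate controls were vehicle for no effect and reference inhibitor for full effect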
Conditions: purified FLuc, luminescence inhibition; activity change, negative = inhibition: at 57.5 µM (top of the series)
Method in brief: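 Purified P. pyralis luciferase (10nM final) with 10uM D-luciferin and 10uM ATP (Km levels) in 50mM Tris acetate pH 7.5, 10mM Mg acetate, 0.01% Tween-20, 0.05% BSA; qHTS 6-point titration, ~60 µM downward; luminescence read.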
Potency is the fitted concentration of half-maximal effect; tags give direction and shape of the fitted curve.

UniProt P08659, sequence (P08659 whole entry, looked up): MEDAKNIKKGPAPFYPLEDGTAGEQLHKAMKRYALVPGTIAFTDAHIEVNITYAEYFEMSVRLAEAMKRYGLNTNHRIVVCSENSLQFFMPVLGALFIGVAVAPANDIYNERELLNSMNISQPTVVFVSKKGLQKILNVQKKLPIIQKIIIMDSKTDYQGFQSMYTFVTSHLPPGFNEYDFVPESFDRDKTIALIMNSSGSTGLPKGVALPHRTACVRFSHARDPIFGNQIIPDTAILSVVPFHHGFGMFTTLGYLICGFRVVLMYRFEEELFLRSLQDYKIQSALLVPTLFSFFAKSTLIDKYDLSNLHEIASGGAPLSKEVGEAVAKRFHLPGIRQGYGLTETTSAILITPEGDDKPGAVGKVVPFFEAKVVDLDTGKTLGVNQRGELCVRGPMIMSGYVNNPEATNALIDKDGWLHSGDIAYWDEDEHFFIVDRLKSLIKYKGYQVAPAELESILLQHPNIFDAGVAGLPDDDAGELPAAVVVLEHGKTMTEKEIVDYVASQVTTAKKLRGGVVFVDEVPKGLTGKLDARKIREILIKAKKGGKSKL

SMILES	Potency	activity change, negative = inhibition
CN(C)CC#Cc1cncc(C(=O)NNC(=O)Nc2ccc(Cl)cc2)c1	active: 23.9 µM	–
CN(CC(=O)Nc1ccc2c(c1)OCCO2)S(=O)(=O)c1cccc2cccnc12	inconclusive: 23.9 µM [inhibitor, single point]	–
COc1cccc(NC(=O)Nc2nc(SC(C)(C)C)ns2)c1	active: 10.7 µM	–
Cc1ccc(NC(=O)N2CCSc3ccccc32)cc1	inconclusive: 33.8 µM [inhibitor, partial curve, poor fit]	–
COc1ccccc1N1CCN(/N=C/c2ccc(O)c(O)c2)CC1	inconclusive: 21.3 µM [inhibitor, partial curve]	–
COc1cc(/C=N/NC(=O)c2cccc([N+](=O)[O-])c2)ccc1OC(=O)c1ccco1	inconclusive: 37.9 µM [inhibitor, partial curve, poor fit]	–
CCN1/C(=C2\C(=O)N(C)C(=S)N2c2ccccc2)C=Cc2ccccc21	inconclusive: 26.9 µM [inhibitor, single point]	–
CC1CCCCC1NC(=S)Nc1ccc(SC(F)F)cc1 (stereo not given)	active: 21.3 µM	–
CC(C)Oc1ccc(C(=O)NC2=NCCS2)cc1	active: 6.01 µM	–
Cc1c(C(=O)NCc2ccc(Cl)cc2)sc2nc3n(c(=O)c12)CCCCC3	inconclusive: 23.9 µM [inhibitor, partial curve, poor fit]	–
Cc1ccc(NC(=O)CS(=O)c2ccccc2N)c(C)c1 (stereo not given)	inconclusive: 30.1 µM [inhibitor, partial curve, poor fit]	–
CCOC(=O)c1ccc(Nc2ncnc3ccccc23)cc1	inconclusive: 37.9 µM [inhibitor, partial curve, poor fit]	–
COc1ccc(-c2nnc(N(C)C(=O)C3CCCO3)s2)cc1 (stereo not given)	active: 13.5 µM	–
O=C(O)CCC(=O)NNC(=O)c1ccc(-c2ccccc2)cc1	active: 19 µM	–
COc1ccc(NC(=O)/C(C#N)=C\c2ccc(N3CCOCC3)o2)cc1	active: 1.9 µM	–
O=C(NC(=S)Nc1ccc2c(c1)OCCO2)c1ccccc1	active: 1.2 µM	–
O=C(Cc1ccc(Cl)cc1)NCCCNC(=O)c1cccnc1	–	inactive: -0.801%
COc1cc(NS(=O)(=O)c2ccc(NC(=O)c3cccc(F)c3)cc2)nc(OC)n1	inconclusive: 13.5 µM [inhibitor, partial curve, poor fit]	–
O=C(Nc1cccnc1)c1ccc(Cl)c(Cl)c1	inconclusive: 12 µM [inhibitor, partial curve, poor fit]	–
N/C(=N\OC(=O)c1ccc(F)cc1)c1ccc(Br)cc1	active: 2.69 µM	–
CC(=O)Nc1ccc(S(=O)(=O)Nc2nc3ccccc3nc2Cl)cc1	inconclusive: 37.9 µM [inhibitor, partial curve, poor fit]	–
CC(/C=C/c1ccco1)=N\NC(=O)c1cc(C)[nH]n1	–	inactive: -2.47%
CCC(C)NC(=O)CSc1nnc(-c2ccc(C(C)(C)C)cc2)n1C (stereo not given)	inconclusive: 37.9 µM [inhibitor, partial curve, poor fit]	–
Cc1ccccc1Nc1c(-c2ccc(Cl)cc2)nc2c(C)cccn12	–	inactive: -0.0718%

SMILES	Potency	activity change, negative = inhibition
CCc1ccc(S(=O)(=O)NC(=S)Nc2ccccc2)cc1	inconclusive: 21.3 µM [inhibitor, partial curve, poor fit]	–
COc1ccc(NC(=O)N2CCc3ccccc3C2)cc1	inconclusive: 13.5 µM [inhibitor, partial curve]	–
CCN(CC)S(=O)(=O)c1cccc(C(=O)N[C@H](C(=O)Nc2nc3ccccc3s2)C(C)C)c1	inconclusive: 30.1 µM [inhibitor, partial curve, poor fit]	–
CCOC(=O)c1c(NC(=O)c2nc(SCC)ncc2Cl)sc2c1CCCC2	–	inactive: -0.431%
COc1ccc(NC(=O)Cn2c(=O)n(CCc3ccccc3)c(=O)c3c4c(sc32)CCCC4)cc1	–	inactive: -1.06%
CCN(CC)S(=O)(=O)c1ccc2oc(Nc3ccc4c(c3)OCCO4)nc2c1	inconclusive: 23.9 µM [inhibitor, single point]	–
CCOc1ccccc1NC(=O)c1ccc2c(c1)CCN2S(=O)(=O)c1ccc(C)cc1	–	inactive: -0.319%
COc1nnc(-c2ccccc2)s1	inconclusive: 30.1 µM [inhibitor, partial curve, poor fit]	–
O=c1/c(=C\c2cccn2-c2ccccc2)sc2nc3ccccc3n12	inconclusive: 1.51 µM [inhibitor, full curve]	–
COc1ccc(S(=O)(=O)Nc2cccc(-c3ccc(N4CCC(C)CC4)nn3)c2)c(OC)c1	active: 2.69 µM	–
Cc1cc(N)n(-c2ccc(Cl)cc2)n1	–	inactive: 2.43%
O=C(O/N=C(/c1ccccc1)c1ccncc1)c1ccccc1[N+](=O)[O-]	–	inactive: -2.68%
Cc1ccccc1CSc1ncnc2ccccc12	inconclusive: 37.9 µM [inhibitor, partial curve, poor fit]	–
CCn1nc(C(=O)OCC(=O)N2CCc3ccccc32)c2ccccc2c1=O	inconclusive: 26.9 µM [inhibitor, partial curve, poor fit]	–
COc1ccccc1C(=O)NNC(=O)c1nn(Cc2ccccc2)c(=O)c2ccccc12	inconclusive: 37.9 µM [inhibitor, partial curve, poor fit]	–
Cc1cccc(NC(=O)c2cn(-c3ccccc3)nc2-c2ccccc2)c1	active: 13.5 µM	–
Cc1ccc(-n2ncc3c(NCCO)ncnc32)cc1Cl	active: 6.01 µM	–
CCN(CC(=O)Nc1ccc(NC(C)=O)cc1)C(=O)c1ccc(NC2CC2)c([N+](=O)[O-])c1	inconclusive: 21.3 µM [inhibitor, single point]	–
CCCN(CC(=O)Nc1ccccc1C)C(=O)C1CCN(c2ncnc3sc(C)c(C)c23)CC1	–	inactive: 4.31%
N#C/C(=N\Nc1cccc2ccccc12)c1nnc2n1CCCCC2	inconclusive: 12 µM [inhibitor, partial curve, poor fit]	–
COc1ccc(CN(CC(=O)NCc2ccc(F)cc2)C(=O)CCC(=O)Nc2cc(C)ccn2)cc1	–	inactive: 1.69%
S=c1[nH]cc(-c2ccc(Cl)cc2)n1Cc1ccccc1	inconclusive: 30.1 µM [inhibitor, single point]	–
Cc1cc(C)c2nc(N(Cc3cccnc3)C(=O)c3cccs3)sc2c1	inconclusive: 21.3 µM [inhibitor, partial curve, poor fit]	–
COc1ccc(C(=O)Nc2ccc(Cl)cc2C(=O)NCCN2CCOCC2)cc1	inconclusive: 37.9 µM [inhibitor, partial curve, poor fit]	–

SMILES	Potency	activity change, negative = inhibition
CCNS(=O)(=O)c1ccc(NC(=O)Nc2cccc(C(F)(F)F)c2)cc1	inconclusive: 21.3 µM [inhibitor, partial curve, poor fit]	–
O=C(Nc1ccc2cn[nH]c2c1)c1ccc(Cl)c(S(=O)(=O)N2CCOCC2)c1	inconclusive: 9.53 µM [inhibitor, partial curve]	–
CC(C)Sc1ncc(Cl)c(C(=O)N(Cc2ccc(N(C)C)cc2)C2CCS(=O)(=O)C2)n1 (stereo not given)	–	inactive: 3.47%
N#Cc1ccc(C(=O)Nc2ccc3c(c2)N(C2CCCC2)C(=O)c2ccccc2S3)cc1	–	inactive: 7.82%
Cc1ccc(Cn2c(CN3CCC(C(=O)NCCc4ccccc4)CC3)cc3ccccc32)cc1	–	inactive: -1.63%
Cc1nn(-c2ccc(N3CCCC3)nn2)c(C)c1CCC(=O)Nc1ccc(F)c(Cl)c1	inconclusive: 26.9 µM [inhibitor, partial curve]	–
Cc1ccc(C(=O)Nc2ccccc2C(=O)N2CCOCC2)cc1[N+](=O)[O-]	inconclusive: 37.9 µM [inhibitor, partial curve, poor fit]	–
CC1=C(CC(=O)NCC(=O)NCC(=O)O)c2cc(F)ccc2/C1=C/c1ccc(S(C)=O)cc1 (stereo not given)	inconclusive: 19 µM [inhibitor, partial curve, poor fit]	–
COCCCNC(=S)N1CCN(c2nc3ccccc3s2)CC1	inconclusive: 37.9 µM [inhibitor, partial curve, poor fit]	–
Cc1ccccc1-c1noc(-c2ccc(N3CCOCC3)c([N+](=O)[O-])c2)n1	inconclusive: 33.8 µM [inhibitor, partial curve, poor fit]	–
Cn1ncc2c(N3CCC(Cc4ccccc4)CC3)ncnc21	–	inactive: 2.11%
Cc1cc(Cl)c2oc(C(=O)N3CCC(O)(c4ccccc4)CC3)c(C)c2c1	–	inactive: 1.22%
COc1cc(/C=C2/SC(=O)NC2=O)ccc1OCc1ccccc1	inconclusive: 26.9 µM [inhibitor, single point]	–
O=C(CSc1nc2ncccc2[nH]1)Nc1ccc2c(c1)OCCO2	active: 15.1 µM	–
COc1ccc(C(=O)Nc2ccccc2C(=O)N/N=C/c2ccncc2)cc1OC	active: 0.239 µM	–
COc1ccc2nc3cccc(OC)c3nc2c1	inconclusive: 37.9 µM [inhibitor, single point]	–
O=S(=O)(c1cccc(-c2cn3ccccc3n2)c1)N1CCCCC1	inconclusive: 26.9 µM [inhibitor, single point]	–
CCN(CC)C(=O)c1ccc(Nc2nnc(C)c3ccccc23)cc1	inconclusive: 26.9 µM [inhibitor, single point]	–
O=C(Oc1ccc(C(=S)N2CCOCC2)cc1)c1ccccc1F	inconclusive: 23.9 µM [inhibitor, single point]	–
CC(OC(=O)c1ccc2ccccc2n1)C(=O)Nc1ccc(N2CCOCC2)cc1 (stereo not given)	inconclusive: 37.9 µM [inhibitor, partial curve, poor fit]	–
CC(Sc1nnc(-c2cccs2)n1C1CC1)C(=O)NCC1CCCO1 (stereo not given)	–	inactive: 4.14%
COc1cc(NC(=O)COCc2cc(-c3ccc4c(c3)OCO4)on2)cc(OC)c1	inconclusive: 23.9 µM [inhibitor, single point]	–
